Laboratory results taken from PubChem BioAssay AID651568 (National Center for Advancing Translational Sciences (NCATS), 2012).
The whole screen tested about 1,200 compounds, of which about 55 (5%) were called active. Not shown: some 15% with an inconclusive outcome. Calls come from the whole dose curve; as a rule, active = well fitted inhibition curve with a large enough effect; inconclusive = small, poorly fitted or top-dose-only effect; inactive = no such curve, though single readings can be large or run the other way. The list shows a part of the results.

Experiment: qHTS Assay to Find Inhibitors of Chronic Active B-Cell Receptor Signaling: Hit Validation in Renilla Reporter Assay; note: nearly all actives have a fitted effect of over 70% in size
Details: TMD8 IkB-Renilla luciferase reporter, NF-kB signaling; series mostly up to 57.5 µM; activity change, negative = inhibition: at the top concentration
In short: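 Orthogonal secondary test of primary-screen hits in ABC-DLBCL cells carrying constitutively expressed IkB-Photinus and Renilla luciferase reporters, read by Dual-Glo luminescence; luciferases differ from the primary assay's click beetle enzymes, to exclude assay-specific artifacts.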
% is set by controls: 0 for no effect and ±100 for the full control effect.

Activity change, negative = inhibition, inactive:
COc1cc2c(cc1OC)C(c1cc3cc(OC)c(OC)cc3[nH]c1=O)N(C(=O)C1CC1)CC2 (configuration not stated) -6.95%
Oc1c(CN2CCN(c3ccccc3)CC2)cc(Br)c2cccnc12 -23.3%
S=C(Nc1ccccc1Cl)N(Cc1ccccc1)Cc1ccccn1 23.3%
Cc1ccccc1C1=NC(C(F)(F)F)(C(F)(F)F)c2c(n(C)c(=O)n(C)c2=O)N1 0.294%
CCc1ccc(N2CC(C(=O)OCC(=O)Nc3ccccc3C)CC2=O)cc1 (configuration not stated) 0.55%
CCC1=Nc2cc(C(=O)NCc3ccco3)ccc2Sc2ccc(Cl)cc21 0.101%
Cn1c(=S)c2[nH]c(SCCN3CCCC3)nc2n(C)c1=O 3.68%
S=C(Nc1ccccc1)c1nc2ccccc2s1 5.84%
Cc1noc(C)c1CSc1ccc2ccccc2n1 9.23%
COc1cc(C(CCN2CCOCC2)c2c(OC)cc(OC)c3c(-c4ccccc4)cc(=O)oc23)cc(OC)c1OC (configuration not stated) -12.5%
COc1ccccc1-c1cc(C(=O)NCCc2ccccc2)no1 1.79%
CCOc1ccc2c(c1)C(C)=CC(C)(C)N2S(=O)(=O)c1ccc(NC(C)=O)cc1 3.79%
CCCCCC1CCC(c2n[nH]c(=S)n2C)CC1 (configuration not stated) 10.6%
Cn1c(=O)[nH]c(=O)c2c1nc(SCC(N)=O)n2Cc1cccc(Br)c1 3.59%
O=C(CSc1ncn[nH]1)Nc1nnc(-c2ccccc2)s1 -24.2%
O=C(CN1CCC(NC(=O)Nc2ccc(F)cc2)CC1)Nc1ccccc1[N+](=O)[O-] -17.4%
CCc1ccc2oc(=O)cc(CN3CCCCC3C)c2c1 (configuration not stated) -4%
Nc1ncnc2c1ncn2[C@@H]1O[C@H](CNC(=O)[C@@H]2CCCN2S(=O)(=O)c2ccc(F)cc2)[C@@H](O)[C@H]1O 0.718%
O=C(CSc1ncccc1C(=O)O)c1ccc2ccccc2c1 -0.336%
COc1cc(C(=O)NC2CCN(Cc3nnnn3Cc3ccc(F)cc3)CC2)cc(OC)c1OC 4.76%
Cc1nnc2sc(-c3csc4c3CCCC4)nn12 -16.9%
CCc1nc2ccccc2c(C(=O)OCc2nc3ccccc3c(=O)[nH]2)c1C -0.954%
CCc1nnc(NC(=O)CSc2nnc(-c3ccccc3NC(=O)c3ccccc3)o2)s1 -4.69%
COc1cc(C2=NOC(C(=O)NCc3ccc(F)cc3)C2)cc(OC)c1OC (configuration not stated) -9.62%
COc1ccc(CCCC(=O)N/N=C/c2cccc(OC)c2O)cc1C -12.9%
O=c1c2c(-c3ccco3)csc2nc(SCc2cn3cccnc3n2)n1-c1ccccc1 -3.42%
CNc1nc(N)c([N+](=O)[O-])c(NCc2ccccc2)n1 7.74%
COC(=O)c1cccc(-n2sc3ccccc3c2=O)c1 -19%
CC(=O)c1ccc(Oc2cc(C)nc(-n3nc(C)cc3C)n2)cc1 -4.03%
O=C(Cc1n[nH]c(=O)c2ccccc12)OCC(=O)c1ccc2c(c1)OCCO2 2.17%
CCCNc1ccc(C(=O)OCC)cc1[N+](=O)[O-] -1.49%
CCN(CC)c1ccc2c(cc1=O)[C@@H](NC)CCc1cc(OC)c(OC)c(OC)c1-2 -30%
Cc1ccccc1-c1nc2c3ccccc3nc(=S)n2[nH]1 -19%
O=C(Cc1ccc(-n2c(=O)c3ccccc3n(Cc3ccc(F)cc3)c2=O)cc1)NCC1CCCO1 (configuration not stated) -25.1%
CCOC(=O)C1=C(C)NC(C)=C(C(=O)OCC)C1C(=O)OCC(=O)NCc1ccccc1OC 20.3%
CCOC(=O)C(C)Oc1cccc2c(=O)n(CC(=O)NCc3ccc(F)cc3)ccc12 (configuration not stated) 1.17%
CCN1C(=O)c2cccc3c(NC(=O)c4ccc(OC)c(OC)c4)ccc1c23 2.97%
C=CCNC(=S)N/N=C/c1ccc(C)cc1C -2.71%
CCN(CC)S(=O)(=O)c1ccc(C(=O)NCCSc2c[nH]c3ccccc23)cc1 -1.06%
NNC(=O)c1cc2cc(OC(F)(F)F)ccc2[nH]1 -3.97%
CC(=O)OCC(=O)[C@@]1(O)CC[C@H]2[C@@H]3CCC4=CC(=O)C=C[C@]4(C)[C@H]3[C@@H](O)C[C@@]21C 0.226%
Cc1cn(-c2cccnc2)c(C)c1CNC[C@H]1O[C@@H](n2cnc3c(N)ncnc32)[C@H](O)[C@@H]1O 0.99%
O=[N+]([O-])c1cc(F)c2cccnc2c1O -24.3%
CCOc1ccc(NC(=S)N(CCc2c(C)[nH]c3ccccc23)Cc2cccnc2)cc1 17.2%
CNC(=O)c1cccc(NC(=O)C(C)c2ccc3cc(OC)ccc3c2)c1 (configuration not stated) -13.1%
CCc1c(C)nc(SCCOc2ccc(OC)cc2)[nH]c1=O 3.08%
CC(=O)Nc1ccc(S(=O)(=O)NCC(=O)OC(C)c2ccccc2Cl)cc1 (configuration not stated) 12.7%
Cc1ccc(S(=O)(=O)Nc2cccc(-c3ccc4nncn4n3)c2)cc1 35.7%
COc1cc(OC)cc(C(=O)NCc2cc(C)nc3ccccc23)c1 -1.18%
O=[N+]([O-])c1ccc(O)c2ncccc12 -22.6%
CCOC(=O)C(C)Oc1cccc2c(=O)n(CC(=O)NCc3ccc4c(c3)OCO4)ccc12 (configuration not stated) -0.0774%
Cc1ccc(OCCN2C(=O)C(=O)c3cc(C)ccc32)cc1 -29.2%
O=C(NC(=S)Nc1cccc(F)c1)c1cccc([N+](=O)[O-])c1 21.1%
Cc1ccc(CCC(=O)Nc2ncc(Cc3cccc(Cl)c3Cl)s2)o1 -12%
CCCc1nnc(NC(=S)Nc2ccccc2)s1 -2.24%
Cc1cc(C(=O)NN)c2cc(Br)ccc2n1 -7.79%
O=C1N/C(=N/N=C/c2ccccc2O)SC1Cc1ccc(F)cc1 (configuration not stated) -10.5%
CCOc1ccc2[nH]c(C(=O)N/N=C/c3ccc(OC)cc3)cc2c1 -1.58%
Cc1ccc(N(C)S(=O)(=O)c2ccc(-c3cnc(C4CC4)o3)cc2)cc1 -14.6%
O=C(CNC(=O)c1ccco1)N=Nc1c(O)n(CCc2ccccc2)c2ccccc12 -27.6%
COc1cc(OC)cc(-c2cc3cc4c(cc3cn2)OCO4)c1 -4.56%
CCn1c(=S)[nH]c2cc(S(=O)(=O)N3CCOCC3)ccc21 0.373%
CCOC(=O)c1[nH]c(C)c(C(=O)c2ccc(C)cc2)c1C 1.19%
COc1ccc(OCC(O)CN2CCN(c3ccccc3)CC2)cc1 (configuration not stated) -3.59%
Cc1ccc(S(=O)(=O)n2cc(-c3ccccc3)c3ccccc32)cc1 4.15%
Cc1ccc2nc(SCC(=O)Nc3cc(C(F)(F)F)ccc3N3CCOCC3)[nH]c2c1 0.461%
COC(=O)CSC1=C(C#N)C(c2ccc(C)o2)CC(=O)N1 (configuration not stated) -14.8%
CCN(CC)S(=O)(=O)c1ccc2c(c1)c(=O)c(C(=O)NCCc1ccc(OC)c(OC)c1)cn2C 50%
CCOC(=O)C(NCc1ccccc1)(NC(=O)c1ccccc1)C(F)(F)F (configuration not stated) 11.7%
CC/C(=N/Nc1ccc(Cl)cc1)c1cnnc(SC)n1 3.12%
Cc1cc(/C=C(\C#N)C(=O)N2CCCCC2)cc(C)c1O 5.45%
C/C(=N\NC(=O)COc1ccccc1-c1ccccc1)c1ccccn1 -4.14%
